Relative growth data for 60 compounds are collected here from the supplement of paper PMC9446081.

Screen size: about 39,000 compounds; about 220 (0.56%) showed activity. This is one part of the list.
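Note: static incubation at 37 °C against the wild-type strain, values averaged over two biological replicates.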

The assay deals with Escherichia coli K-12 BW25113. The experiment in a line: relative growth (OD600 normalised to plate interquartile mean) (fraction); higher = less growth inhibition, active = 0.2 or less. The following applies: 50 µM; LB; incubation time: overnight (16-24 h).
With `COC1C(O)C(C)OC(OC2CCC3(C)C4CCC5(C)C(C6=CC(=O)OC6)CCC5(O)C4CCC3(O)C2)C1O` (stereo not given), the relative growth was inactive: 0.943.

Take `CNC(=O)Oc1ccc2c(c1)[C@]1(C)CCN(C)[C@@H]1N2C.CNC(=O)Oc1ccc2c(c1)[C@]1(C)CCN(C)[C@@H]1N2C.O=S(=O)(O)O`: the relative growth was inactive: 1.04.

As to `CCCN1CC(CSC)CC2c3cccc4[nH]cc(c34)CC21.CS(=O)(=O)O` (stereo not given), the relative growth is inactive: 1.15.

In the case of `COc1ccc2c(c1)C[C@H](N)C2`, the relative growth is inactive: 0.985.

With `c1cc(N2CCNCC2)ccn1`, the relative growth is inactive: 1.02.

Regarding `O=c1[n-]c(=O)n(Cl)c(=O)n1Cl.[Na+]`, the relative growth is inactive: 1.11.

Take `CCOP(=S)(OCC)Oc1nc(Cl)c(Cl)cc1Cl`: the relative growth was inactive: 1.06.

Take `C[C@H]1C[C@@H](O)[C@]2(O)[C@@]13CC(=O)OC[C@@]2(C)[C@](C)(O)C(=O)C3`: the relative growth was inactive: 1.04.

In the case of `N[C@]1(C(=O)O)CC[C@@H](C(=O)O)C1`, the relative growth is inactive: 0.988.

Consider `Cn1cc(N2C[C@@H]3CN(CCO)C[C@@H]3C2=O)cn1`, for which the relative growth was inactive: 0.991.

Consider `COCCCNC(=O)[C@@]1(Cc2ccccc2N=[N+]=[N-])N=C(c2ccc(OCCCO)cc2)O[C@H]1c1ccccc1N=[N+]=[N-]`, for which the relative growth is inactive: 1.02.

In the case of `CCOCC(=O)N1CC[C@H]2CNC[C@H]21`, the relative growth is inactive: 0.983.

As for `COP(=S)(OC)Oc1ccc(Sc2ccc(OP(=S)(OC)OC)cc2)cc1`, the relative growth was inactive: 0.986.

Consider `Cl.c1ccc2c(c1)OCC(C1=NCCN1)O2` (stereo not given), for which the relative growth is inactive: 0.936.

On to `N[C@H]1C[C@@H]1c1ccccc1`, for which the relative growth is inactive: 1.04.

For the compound `CCN(CC)CCOC(=O)C(O)(c1ccccc1)c1ccccc1.Cl`, the relative growth was inactive: 1.01.

As to `CO[C@H]1C[C@H](O[C@H]2CC[C@]3(C=O)[C@H]4CC[C@]5(C)[C@@H](C6=CC(=O)OC6)CC[C@]5(O)[C@@H]4CC[C@]3(O)C2)O[C@H](C)[C@H]1O`, the relative growth was inactive: 0.98.

For `CCCCC[C@H]1C(=O)O[C@H](C)[C@H](NC(=O)c2cccc(NC=O)c2O)C(=O)O[C@@H](C)[C@@H]1OC(=O)CC(C)C`, the relative growth was inactive: 0.958.

For `NCc1[nH]nc2cc(F)ccc12`, the relative growth is inactive: 0.99.

For `O=C(O)C=CC(=O)O.c1ccc2nc(N3CCNCC3)ccc2c1`, the relative growth was inactive: 0.991.

With `[NH2][Pt]1([NH2])[O]C(=O)C2(CCC2)C(=O)[O]1`, the relative growth is inactive: 0.958.

In the case of `C[C@@H]1CN([C@H](C)CO)C(=O)c2c(c3ccccc3n2C)-c2ccccc2CO[C@@H]1CN(C)C(=O)Oc1ccccc1`, the relative growth was inactive: 1.02.

Take `C=C(C)C1Cc2c(ccc3c2OC2COc4cc(OC)c(OC)cc4C2C3=O)O1` (stereo not given): the relative growth was inactive: 1.02.

On to `CCCCCCCCCCCCCCCC[n+]1ccccc1`, for which the relative growth is active: 0.16.

`COC(=O)C1CC(OC(C)=O)C(=O)C2C1(C)CCC1C(=O)OC(c3ccoc3)CC12C` (stereo not given): the relative growth was inactive: 1.02.

As to `CNC(=O)Oc1ccccc1OC(C)C`, the relative growth was inactive: 1.13.

Regarding `CCCC(=O)c1c(O)[nH]c(=O)[nH]c1=O`, the relative growth is inactive: 1.01.

As for `Oc1ccccc1-c1ccccc1`, the relative growth is inactive: 0.915.

Take `CN1[C@@H]2CC[C@@H]1C[C@H](O)C2` (stereo not given in full): the relative growth is inactive: 1.01.

As for `Cc1cccc(N2CCNCC2)n1`, the relative growth was inactive: 0.98.

In the case of `Cc1nnc(N2CCC[C@]3(CNCCO3)C2)o1`, the relative growth is inactive: 0.98.

Turning to `CC(=O)NC1CCSC1=O` (stereo not given), the relative growth was inactive: 0.982.

As to `CC(N)C(O)c1ccc(O)c(O)c1` (stereo not given), the relative growth was inactive: 1.05.

For the compound `O=C(NC(O)C(Cl)(Cl)Cl)NC(O)C(Cl)(Cl)Cl` (stereo not given), the relative growth is inactive: 1.21.

As to `CCN1C[C@]2(OC(=O)c3ccccc3NC(C)=O)CC[C@@H](OC)[C@@]34[C@H]5C[C@@H]6[C@@H](OC)C[C@](O)([C@@H](C[C@@H]23)[C@@H]14)[C@]5(O)[C@H]6OC`, the relative growth is inactive: 0.979.

As to `OCC(O)C1OC2OC(C(Cl)(Cl)Cl)OC2C1O` (stereo not given), the relative growth was inactive: 0.919.

On to `CN1C(=O)CCS(=O)(=O)C1c1ccc(Cl)cc1` (stereo not given), for which the relative growth is inactive: 0.979.

On to `CC(=O)OC1CC2C(C)(C)C(=O)C=CC2(C)C2CCC3(C)C(=CC(=O)OC3c3ccoc3)C12C` (stereo not given), for which the relative growth was inactive: 1.08.

`C=CCC1(O)CCC2C3CCC4=CC(=O)CCC4=C3C=CC21C` (stereo not given): the relative growth is inactive: 1.08.

With `c1ccc2c(c1)sc1ccccc12`, the relative growth is inactive: 1.07.

For the compound `CN1C(=O)NC(=O)/C(=C\c2ccc(O)cc2)C1=O`, the relative growth was inactive: 1.01.

Consider `NC(=O)CS(=O)C(c1ccccc1)c1ccccc1` (stereo not given), for which the relative growth was inactive: 1.17.

In the case of `CN1CCN(C(=O)CN=[N+]=[N-])CC1`, the relative growth was inactive: 0.983.

For `Cc1ccc2nc(CCN)[nH]c2c1`, the relative growth was inactive: 0.999.

Regarding `NC1(c2ccccc2F)CCCC1`, the relative growth was inactive: 1.02.

For the compound `C=C(C)C1C2OC(=O)C1C1(O)CC3OC34C(=O)OC2C14C` (stereo not given), the relative growth is inactive: 0.953.

In the case of `CC(=O)OC1CCC2(C)C(CCC3C2CCC2(C)C(C4=CC(=O)OC4)C(OC(C)=O)CC32O)C1` (stereo not given), the relative growth was inactive: 1.01.

Regarding `CO[C@@H]1C=C[C@@H]2[C@H]1N2CCCO` (stereo not given in full), the relative growth is inactive: 0.993.

For `C1CO[C@@]2(C1)CCNC2`, the relative growth is inactive: 1.08.

Take `CCOP(=S)(OCC)Oc1ccc2c(C)c(Cl)c(=O)oc2c1`: the relative growth is inactive: 0.955.

On to `COc1ccc(OC(=O)N(C)C[C@@H]2OCc3ccccc3-c3c(n(C)c4ccccc34)C(=O)N([C@H](C)CO)C[C@@H]2C)cc1`, for which the relative growth is inactive: 1.

Consider `O=C1C=CC(=O)C=C1`, for which the relative growth is inactive: 0.984.

Turning to `COC(=O)NC(=S)Nc1ccccc1NC(=S)NC(=O)OC`, the relative growth is inactive: 1.01.

Regarding `Oc1ccccc1-c1ccccc1O`, the relative growth was inactive: 0.657.

In the case of `O=c1cccc2n1C[C@H]1CNC[C@H]2C1`, the relative growth is inactive: 0.971.

On to `Cc1cc(C)nc(NC2=NCCN2)n1`, for which the relative growth was inactive: 0.997.

Turning to `CCCC[C@@H](C)[C@@H](OC(=O)C[C@@H](CC(=O)O)C(=O)O)[C@H](C[C@@H](C)C[C@H](O)CCCC[C@@H](O)C[C@H](O)[C@H](C)N)OC(=O)C[C@@H](CC(=O)O)C(=O)O`, the relative growth was inactive: 1.01.

In the case of `CC1=C2C(=COC(C)C2C)C(O)=C(C(=O)O)C1=O` (stereo not given), the relative growth is inactive: 0.87.

As to `CCn1nc(-c2cccnc2)nc2c(=O)n(C)c(=O)nc1-2`, the relative growth is inactive: 0.846.

Take `CC(=O)N[C@@H]1[C@H](O[C@@H]2O[C@H](C[C@@H](O)[C@H]3O[C@@H](n4ccc(=O)[nH]c4=O)[C@H](O)[C@@H]3O)[C@H](O)[C@H](O)[C@H]2NC(=O)/C=C/CCCCCCCCC(C)C)O[C@@H](CO)[C@H](O)[C@H]1O`: the relative growth is inactive: 1.03.
